Patent US20260374880 (published 2026)

Legend:
[1] = biological target: T1, human TGFbR1 ECD-133-myc(His)6 (human); experiment: BLI
T1 chain: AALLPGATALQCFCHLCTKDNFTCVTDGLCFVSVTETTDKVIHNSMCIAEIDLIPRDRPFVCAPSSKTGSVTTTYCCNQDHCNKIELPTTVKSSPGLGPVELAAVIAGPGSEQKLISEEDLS

[2] = biological target: T2, human TGFbR1 ECD 33-125-myc(His)6 (human); experiment: ELISA
T2 chain: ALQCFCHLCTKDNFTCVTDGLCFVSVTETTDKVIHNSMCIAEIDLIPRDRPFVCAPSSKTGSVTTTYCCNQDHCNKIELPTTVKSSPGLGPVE

B1: B-ML012-19 (antibody)
chain: [sequence of about 100 residues omitted]VVGYVYGGSYGGGMDYWGQGTLVTVSSGGGGSGGGGSGGGGSDIQMTQSPSSLSASVGDRVTITCRASQSISSYLNWYQQKPGKAPKLLIYAASSLQSGVPSRFSGSGSGTDFTLTISSLQPEDFATYYCQQGYGPLTFGQGTKLEIK
For B1, the Kd [1] was about 330 nM and the binding result [2] was “no binding”.
